Sequences and labels used below:
B1: LINE1-mini (parent)
chain: GGCAGAGCUCAACACAGCGUGGCAAAGUGGCUGUGGCUAGACUGCC

Read counts are not given, so values of variants with three or more changes are uncertain.

This data set covers variants of B1. Nature of the data set: self-cleavage, relative activity (ratio to wild type); higher = more cleavage; in vitro, sequencing; the parent is a self-cleaving ribozyme.
Take C15G G35U G40A G44C: the self-cleavage was 0.

With C15U A25U G30U G40U, the self-cleavage worked out at 0.08.

Turning to C15U C18A U28C C31G C37U C45A, the self-cleavage amounted to 0.

C15G G33A G35U: the self-cleavage worked out at 0.02.

C15G G22C U43G G44U: the self-cleavage turned out to be 0.01.

In the case of C15U G19C G30C U43G, the self-cleavage stood at 0.

Consider C15U G22A C31G U32G, for which the self-cleavage is 0.04.

C15U G21C C45A: the self-cleavage amounted to 0.4.

As for C15U G17C U20G G35U, the self-cleavage came out at 0.02.

For the variant C15U U28G U34G U38G, the self-cleavage turned out to be 0.

For C15G G22C C23U U28A C31U, the self-cleavage is 0.01.

As for C15G G29A C45U, the self-cleavage worked out at 0.14.

In the case of C15U U28C C37A, the self-cleavage was found to be 0.29.

Turning to C15G C18G C37G, the self-cleavage is 0.01.

Regarding C15G C18U C45A, the self-cleavage was found to be 0.02.

Consider C15U G22C A24C, for which the self-cleavage was determined as 0.06.

For C15G G19C A25C C37A C46A, the self-cleavage amounted to 0.01.

For C15U C18A G29C C45U, the self-cleavage stood at 0.07.

Take C15G U20G C37A U38G G40A: the self-cleavage amounted to 0.

As to C15U G29U U38A G44A, the self-cleavage stood at 0.3.

Turning to C15G G33A G36U C37A C46U, the self-cleavage was 0.01.

For the variant C15U G22A A26U A39C G44C, the self-cleavage was 0.05.

Consider C15U A16U U34G A41G, for which the self-cleavage is 0.07.

As for C15G C18A U34C C42G, the self-cleavage is 0.02.

As for C15G G17U U20G G36A C37U, the self-cleavage worked out at 0.02.

Consider C15U G19U G22A A25C U28A C31A G35C, for which the self-cleavage stood at 0.14.

On to C15G G29U C37U, for which the self-cleavage was determined as 0.05.

Take C15U G17A A41C: the self-cleavage worked out at 0.06.

As to C15G C31A A39G, the self-cleavage was found to be 0.01.

Regarding C15U G17A G27U, the self-cleavage was determined as 0.08.

As for C15G U34G C46A, the self-cleavage was 0.02.

As for C15U G30U G40U, the self-cleavage worked out at 0.21.

Take C15G G19U G36A G40A: the self-cleavage was 0.03.

As for C15U G17U G22A C23A C42A, the self-cleavage was determined as 0.26.

As for C15U G17U G19C C31G C45A, the self-cleavage amounted to 0.08.

On to C15G G21U C45U, for which the self-cleavage came to 0.02.

Regarding C15U C31U G36U, the self-cleavage was found to be 0.06.

Take C15U A16U G27A C31A G35A: the self-cleavage is 0.03.

As to C15U G17C U28G, the self-cleavage was found to be 0.03.

As for C15U G19U A24U, the self-cleavage stood at 0.19.

Take C15U G21U U28C C42G C46A: the self-cleavage is 0.02.

Consider C15U G33A G44U, for which the self-cleavage worked out at 0.13.

Take C15G U28A C46A: the self-cleavage turned out to be 0.04.

Take C15U G30C U38C A39G: the self-cleavage stood at 0.02.

C15G G30C G44A: the self-cleavage turned out to be 0.03.

For the variant C15G G30C G33U C37A, the self-cleavage stood at 0.03.

As to C15G C18U C37A A39U G40A G44A, the self-cleavage was determined as 0.04.

On to C15G C42A C46A, for which the self-cleavage worked out at 0.09.

For the variant C15U U20G A26U C46U, the self-cleavage turned out to be 0.26.

On to C15G G17U C18U C23A C45A, for which the self-cleavage came out at 0.04.

On to C15G G22A A39C, for which the self-cleavage turned out to be 0.04.

For the variant C15U A24G U32G, the self-cleavage was 0.3.

Consider C15G G29A C37U, for which the self-cleavage was found to be 0.04.

Consider C15U G29A C42G, for which the self-cleavage is 0.09.

As to C15U A39U G40C G44U C45A, the self-cleavage was 0.03.

For the variant C15U U28G C31A, the self-cleavage turned out to be 0.03.

For C15G G17U G19A, the self-cleavage is 0.

Take C15G G36C G44U: the self-cleavage is 0.02.

On to C15G G22C C23A A25C C45A, for which the self-cleavage stood at 0.01.

For the variant C15U G22C C46A, the self-cleavage was 0.29.

C15U G27C U34G C42G C46A: the self-cleavage was found to be 0.04.

Turning to C15G U32C G40U, the self-cleavage was found to be 0.1.

For C15G G19U G30C G33U C42A, the self-cleavage stood at 0.02.

On to C15U G19C U28A C31A, for which the self-cleavage is 0.6.

For C15U A16G G36C A39U, the self-cleavage came out at 0.02.

C15G C18A A41U C46U: the self-cleavage was 0.03.

With C15G U28C G40U C45U, the self-cleavage was determined as 0.02.

For C15U U20A A24C G40U, the self-cleavage stood at 0.09.

As for C15U G22C A25G, the self-cleavage worked out at 0.25.

Regarding C15U G29U C45A, the self-cleavage is 0.07.

Consider C15U G19U G36C, for which the self-cleavage is 0.05.

Consider C15U G40U G44C, for which the self-cleavage was 0.03.

For the variant C15U C31A C45A, the self-cleavage amounted to 0.02.

For C15G G27A U28A A39U G40U, the self-cleavage amounted to 0.01.

For the variant C15G G27U G36C G40A C45U, the self-cleavage is 0.01.

On to C15U G17A A26U U28A, for which the self-cleavage came to 0.18.

Regarding C15G C31U C42A C46U, the self-cleavage was 0.01.

As to C15U C31U U34C, the self-cleavage came out at 0.01.

As to C15G G29A A39U, the self-cleavage stood at 0.12.

For C15G G36A C37A, the self-cleavage was 0.01.

As for C15U U28G C37A A39G, the self-cleavage amounted to 0.11.

C15G G22A C46A: the self-cleavage was determined as 0.07.

C15U U32C C42A: the self-cleavage stood at 0.08.

Consider C15U G27U U28C C45G, for which the self-cleavage is 0.06.

As for C15U G21C U38G G40C, the self-cleavage came to 0.04.

Take C15U A16G G27A: the self-cleavage stood at 0.04.

As for C15G G19A A25U G27A G30U G35A, the self-cleavage was 0.03.

For the variant C15G G19U G22A G40U C42U G44U, the self-cleavage amounted to 0.01.

Turning to C15U C18A C23A A26U C37A A39G G44U, the self-cleavage is 0.07.

As for C15G G22C C37G, the self-cleavage came out at 0.03.

On to C15U A16C C46G, for which the self-cleavage came out at 0.05.

On to C15U G27A U32C A41C, for which the self-cleavage was determined as 0.1.

As to C15U G17U C23U, the self-cleavage stood at 0.08.

As for C15G A41U C42A, the self-cleavage came to 0.02.

For the variant C15U G30A U34A, the self-cleavage was 0.21.

As to C15U G17C U28C U38A, the self-cleavage was 0.24.

Take C15U G17C C23G C31G: the self-cleavage was determined as 0.75.

Take C15U A16G G40U: the self-cleavage was found to be 0.07.

With C15U G19A U20G G29A U32G C46U, the self-cleavage is 0.01.

On to C15U G33U U34A, for which the self-cleavage stood at 0.11.

Consider C15U U20A U34A, for which the self-cleavage was found to be 0.11.

Take C15U G36A G44U: the self-cleavage amounted to 0.11.

Turning to C15G G19U G33U C46G, the self-cleavage is 0.08.

For C15U U20A G27U U28A, the self-cleavage stood at 1.12.

On to C15U G19U U20C A25G, for which the self-cleavage was 0.26.

Take C15G U34A G36U: the self-cleavage worked out at 0.03.

On to C15U C23A G40U, for which the self-cleavage came out at 0.01.

As to C15G A41C C46U, the self-cleavage worked out at 0.03.

Consider C15G G19A U20G G30C U43A, for which the self-cleavage is 0.03.

Regarding C15U G19C G27U C31A U34A A39C, the self-cleavage turned out to be 0.14.

Regarding C15U G17U A24C, the self-cleavage came to 0.05.

On to C15G G29C C31U G36C, for which the self-cleavage was 0.01.

In the case of C15U U20C C46A, the self-cleavage was found to be 0.08.

Consider C15U C23U U34C A39G, for which the self-cleavage was 0.02.

With C15U G19C U20A G22A G33U G35A, the self-cleavage was 0.09.

C15G G29C G30C: the self-cleavage is 0.01.

For the variant C15G U32A G36A A39U G40U, the self-cleavage was 0.01.

For C15U A16G U28A, the self-cleavage stood at 0.34.

As to C15U G40A C42A, the self-cleavage stood at 0.16.

Turning to C15U C23U U43A, the self-cleavage turned out to be 0.07.

On to C15U C23A C31A, for which the self-cleavage worked out at 0.03.

Consider C15U A25G U43C, for which the self-cleavage was determined as 0.14.

Turning to C15U U28G G29A G30C U32G, the self-cleavage is 0.04.

As for C15G C18U C31U, the self-cleavage was determined as 0.03.

For the variant C15U G27A U34A, the self-cleavage worked out at 0.08.

Regarding C15U G17U C23U C31U G33U, the self-cleavage was 0.37.

On to C15U C18A A26G G30U A41G C42U, for which the self-cleavage came to 0.04.

With C15G U20A C31A C42A C45A, the self-cleavage turned out to be 0.03.

With C15U G19A U43A C45U, the self-cleavage was 0.05.

For the variant C15U C37U G44C, the self-cleavage amounted to 0.14.

C15G C37G A39U: the self-cleavage turned out to be 0.02.

With C15U A26C U28G U43C, the self-cleavage turned out to be 0.04.

Take C15U G17A A24U A26C: the self-cleavage came out at 0.07.

For C15G U34C C42G, the self-cleavage was determined as 0.02.

On to C15G C18A G44A, for which the self-cleavage turned out to be 0.08.

In the case of C15G U34G C37G, the self-cleavage was 0.01.

C15G C18U U32A C37A C42G: the self-cleavage is 0.01.

For the variant C15G C18A G29C, the self-cleavage came out at 0.02.

As for C15G U20A C31G, the self-cleavage stood at 0.02.

For the variant C15G G17C G19U C23A, the self-cleavage was 0.04.

Consider C15U C18A G21C, for which the self-cleavage is 0.03.

Consider C15U C31A U34C U38C, for which the self-cleavage is 0.03.

Take C15U C18A C31U: the self-cleavage was determined as 0.02.

Consider C15G G19A U43C, for which the self-cleavage was found to be 0.02.

As for C15G U20A U34G G44U, the self-cleavage was determined as 0.03.

Regarding C15U C23A U34G G36U G44U, the self-cleavage is 0.03.

Turning to C15G C31G G35C C37U C46A, the self-cleavage came out at 0.01.

C15U C18U A26C U32A G44U: the self-cleavage turned out to be 0.02.

C15U A16G G35C A41U: the self-cleavage turned out to be 0.09.

For the variant C15U G21A G40C, the self-cleavage was found to be 0.01.

With C15U G27U C31A U38C G44A, the self-cleavage amounted to 0.11.

C15G G35U U38C A41U: the self-cleavage worked out at 0.04.

With C15U U28C U34C, the self-cleavage was found to be 0.04.

For the variant C15U G19A C37A U43A, the self-cleavage was 0.12.

With C15U C23A G35C C46U, the self-cleavage was 0.05.

Regarding C15G C23G U28A U34C, the self-cleavage worked out at 0.01.

With C15U G17U U38G, the self-cleavage came out at 0.06.

As to C15G U28G A41G C42G, the self-cleavage was determined as 0.01.

As for C15U U20C A25C C37U, the self-cleavage was determined as 0.05.

Turning to C15G G19A C37G, the self-cleavage is 0.01.

For the variant C15U A39U C42A, the self-cleavage came out at 0.02.

In the case of C15U G19U U28G, the self-cleavage amounted to 0.23.

As for C15U A25G C46A, the self-cleavage was 0.29.

For the variant C15U G22U A25U, the self-cleavage worked out at 0.4.

Turning to C15U G29C G30C U34G G44U, the self-cleavage was determined as 0.01.

In the case of C15G G27A C37G U43A, the self-cleavage worked out at 0.

With C15U A16C A25G, the self-cleavage stood at 0.07.
